# The whole screen tested about 370,000 compounds, of which about 150 (0.041%) were called active. This list was built around the results that the source calls inconclusive (neither active nor inactive); the mix of calls is not that of the screen. The call rests on the fitted dose curve; in most records, active means well fitted inhibition curve with a large enough effect; inconclusive means small, poorly fitted or top-dose-only effect; inactive means flat fitted curve, though single readings scatter. No potency is given beside an inconclusive call; the fits are too rough.
# Molecular target: Beta-lactamase (Escherichia coli (strain K12)) (UniProt P00811)
# Experiment: qHTS Inhibitors of AmpC Beta-Lactamase (assay with detergent); further: nearly all actives have a fitted effect of over 25% in size;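 on activity change, negative = inhibition: 0% = no-compound wells and -100% = no-enzyme wells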
# Conditions: AmpC hydrolysis of nitrocefin, absorbance 480 nm, 0.01% Triton; activity change, negative = inhibition: at 114 µM (top of the series)
# Procedure, shortened: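 AmpC (5.3 nM in the dispensed reagent) in 20 mM phosphate pH 7.0 with 0.01% (detergent screen) or 0.0001% Triton X-100 was preincubated with compounds for 15 min at room temperature. Nitrocefin was then added from an 800 uM solution, and hydrolysis was followed at 480 nm.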
# Potency means the concentration at half of the fitted maximal effect; tags describe the fitted curve by direction and shape.
# Sequence of UniProt P00811 (P00811 whole entry, looked up): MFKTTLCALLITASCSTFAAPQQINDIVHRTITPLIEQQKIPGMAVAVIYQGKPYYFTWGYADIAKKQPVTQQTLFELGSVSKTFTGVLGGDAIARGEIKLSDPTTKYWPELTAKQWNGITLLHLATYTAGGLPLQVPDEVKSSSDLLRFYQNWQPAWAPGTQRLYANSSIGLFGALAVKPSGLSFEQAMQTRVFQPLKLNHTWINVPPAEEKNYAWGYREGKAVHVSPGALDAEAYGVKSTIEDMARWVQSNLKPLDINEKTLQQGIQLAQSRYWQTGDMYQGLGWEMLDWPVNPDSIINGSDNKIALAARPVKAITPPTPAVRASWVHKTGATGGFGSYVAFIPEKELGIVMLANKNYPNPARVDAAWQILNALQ
SMILES,Potency,"activity change, negative = inhibition"
O=c1[nH]c(O)c(N=Nc2cc(C(F)(F)F)ccc2Cl)c(=O)[nH]1,"inconclusive [inhibitor, full curve, poor fit]",
Cc1ccc(Oc2cc([N+](=O)[O-])cc3c2C(=O)Nc2ccccc2O3)cc1,"inconclusive [inhibitor, partial curve]",
CCCOC(=O)C1=C(C)NC2=C(C(=O)CC(C)(C)C2)C1c1cccnc1 (centres undefined),,inactive: -8.51%
CC1CN(C(=O)COC(=O)/C=C/c2ccc(C(F)(F)F)cc2)CC(C)O1 (centres undefined),"inconclusive [inhibitor, full curve, poor fit]",
O=C1CN(C(=O)/C=C/c2ccccc2)CCN1,"inconclusive [inhibitor, full curve, poor fit]",
COc1ccc(C(=O)N2CC3(C)CC2CC(C)(C)C3)cc1 (centres undefined),,inactive: 2.81%
CCCCNC(=O)[C@H](CSCc1ccccc1)N1Cc2ccccc2C1=O,"inconclusive [inhibitor, partial curve, poor fit]",
Cc1[nH]c2ccccc2c1/C=N/NC(=O)c1cccc([N+](=O)[O-])c1,,inactive: 0.631%
Cc1nc2cc3ccccc3cc2c(=O)[nH]1,,inactive: -12.2%
CCn1nc(C(=O)Nc2ccc(S(=O)(=O)Nc3nccs3)cc2)c2ccccc2c1=O,"inconclusive [inhibitor, full curve, poor fit]",
CC1CCCC(C)N1C(=O)COC(=O)CCc1nc2ccccc2c(=O)[nH]1 (centres undefined),"inconclusive [inhibitor, full curve, poor fit]",
O=C(c1ccc2c(c1)OCO2)n1nnc2ccccc21,"inconclusive [inhibitor, partial curve, poor fit]",
O=C1/C(=C/c2cc3c(cc2Cl)OCO3)N2CCC1CC2,"inconclusive [inhibitor, full curve, poor fit]",
O=C(Nc1cccc(C(F)(F)F)c1)Nn1cnnc1,"inconclusive [inhibitor, full curve]",
CC1CCN(S(=O)(=O)c2ccc3c(c2)N(CC(=O)N(C)Cc2ccccc2)C(=O)CO3)CC1,,inactive: 16.7%
O=C(CSc1ncccn1)Nc1ccccc1,"inconclusive [inhibitor, single point]",
CCOC(=O)N1CCN(S(=O)(=O)CCNC(=O)c2ccccc2)CC1,"inconclusive [inhibitor, partial curve, poor fit]",
Cc1ccc2cc(CN(CC3CCCO3)S(=O)(=O)c3cccc4nsnc34)c(=O)[nH]c2c1 (centres undefined),"inconclusive [inhibitor, partial curve, poor fit]",
Cn1c(=O)c2c(nc(N3CCc4ccccc4C3)n2Cc2ccccc2F)n(C)c1=O,"inconclusive [inhibitor, single point]",
COc1ccc(OC)c(Nc2nc(NCCO)c3ccccc3n2)c1,,inactive: -14.4%
CCCc1nc(N2CCN(C)CC2)c2sc(=S)n(-c3ccccc3)c2n1,"inconclusive [inhibitor, full curve, poor fit]",
CCN(CC)c1ccc(/C=N/N2CCN(Cc3cccc4ccccc34)CC2)c(O)c1,"inconclusive [inhibitor, partial curve]",

SMILES,Potency,"activity change, negative = inhibition"
Cc1ccc(C)c(N2CCN(C3CCCC(C)C3)CC2)c1 (centres undefined),"inconclusive [inhibitor, single point]",
CC(C)OCCCNC(=O)C1CCC(=O)N1C1CCCC1 (centres undefined),"inconclusive [inhibitor, full curve, poor fit]",
CN(C)C(CNC(=O)c1ccc(NS(=O)(=O)c2ccc(F)cc2)cc1)c1ccco1 (centres undefined),"inconclusive [inhibitor, full curve]",
CC(C)OC(=O)CC(=O)CSc1nc2c(cc1C#N)CCCCCC2,,inactive: 2.01%
COc1ccc(OC)c(N=c2oc3c(OC)cccc3cc2C(=O)NCc2ccco2)c1,"inconclusive [inhibitor, full curve, poor fit]",
Cc1ccccc1Cn1c(=O)n(-c2ccccc2)c(=O)c2ccc(C(=O)NCc3ccco3)cc21,"inconclusive [inhibitor, partial curve, poor fit]",
O=C(Nc1nc(-c2ccncc2)cs1)C1COc2ccccc2O1 (centres undefined),"inconclusive [inhibitor, full curve, poor fit]",
CCc1noc(C)c1C(=O)OCC(=O)NC(=O)c1ccccc1,"inconclusive [inhibitor, partial curve, poor fit]",
COc1ccc(CCNC(=O)C2CCN(S(=O)(=O)N3CCC4(CC3)OCCO4)CC2)cc1OC,"inconclusive [inhibitor, full curve, poor fit]",
O=S(=O)(NCCc1csc(-c2cccnc2)n1)c1ccc(Cl)s1,,inactive: -18.3%
CC[C@H](C)[C@@H](C(=O)NCCCCCCCCCCC(=O)N1CCN(C(=O)OC(C)(C)C)CC1)n1cc(CCCCCNC(=O)OC(C)(C)C)nn1,"inconclusive [inhibitor, full curve]",
O=C(COC(=O)/C=C/c1ccccc1[N+](=O)[O-])Nc1ccc(OCc2ccccc2)cc1,,inactive: -4.03%
COc1ccc(-c2cc3ccc(OCc4nn[nH]n4)cc3oc2=O)cc1OC,"inconclusive [inhibitor, full curve, poor fit]",
CCOC(=O)c1nc(C)n(-c2cc(Cl)ccc2Cl)n1,"inconclusive [inhibitor, partial curve]",
COc1cccc2c3c(c(=O)[nH]c12)CCC(C)(C)O3,"inconclusive [inhibitor, single point]",
CC(=O)CCC(C)=O,,inactive: 2.75%
CCn1c(CNC(=O)c2ccco2)nnc1SCC(=O)c1ccc(F)cc1,"inconclusive [inhibitor, single point]",
COc1ccc(NS(=O)(=O)c2cccc(C(=O)NNC(=O)CNC(=O)c3ccccc3F)c2)cc1,"inconclusive [inhibitor, full curve, poor fit]",
CC(C)N(Cc1nc(-c2ccccc2)no1)C(=O)C(Cl)(Cl)Cl,,inactive: -7.18%
O=C1COc2ccc(C(=O)COC(=O)c3c(F)cccc3Cl)cc2N1,"inconclusive [inhibitor, single point]",
O=C(O)CC(NC(=O)C(c1ccccc1)c1ccccc1)c1ccco1 (centres undefined),"inconclusive [inhibitor, full curve, poor fit]",
Cc1cc(=O)[nH]c(N/N=C/c2ccc(F)cc2)n1,,inactive: -0.119%

SMILES,Potency,"activity change, negative = inhibition"
COc1ccc(-c2nnn(CC(=O)N(Cc3ccco3)C(C(=O)NCC3CCCO3)c3ccco3)n2)cc1 (centres undefined),,inactive: -4.21%
COc1ccccc1-n1c(O)c(/C=N/N2CCCCC2)c(=O)n(-c2ccccc2OC)c1=S,,inactive: -6.23%
CCOCCCN1CN(Cc2ccco2)CNC1=S,"inconclusive [inhibitor, partial curve]",
COc1ccc(C(=O)c2ccc(OC)c(OC)c2)cc1,"inconclusive [inhibitor, full curve, poor fit]",
O=C(CN(C(=O)CNS(=O)(=O)c1ccccc1)C1CCCC1)NCC1CCCO1 (centres undefined),"inconclusive [inhibitor, single point]",
Cc1cccc2cc(COC(=O)C(C)C)c(=O)[nH]c12,"inconclusive [inhibitor, full curve, poor fit]",
COc1ccc(OC)c(C2CC(=O)N3CN(c4ccccc4)CSC3=C2C#N)c1 (centres undefined),"inconclusive [inhibitor, full curve]",
CC(=O)N1CCN(CC(=O)Nc2cccc(S(=O)(=O)N3CCCCCC3)c2)CC1,"inconclusive [inhibitor, partial curve, poor fit]",
O=C(NCc1ccc(Cl)cc1)C(=O)NCC1CCCN1S(=O)(=O)c1cccs1 (centres undefined),"inconclusive [inhibitor, full curve, poor fit]",
CCN(C(=O)c1cc2c(s1)-c1ccccc1OC2)c1cc(OC)ccc1OC,"inconclusive [inhibitor, full curve, poor fit]",
CC(=O)Nn1c(COc2ccccc2C)nc2ccccc2c1=O,"inconclusive [inhibitor, full curve]",
CC(C)CSc1nc(N2CCOCC2)c2c(c1C#N)CC(C)(C)SC2,"inconclusive [inhibitor, full curve, poor fit]",
COc1ccccc1OCC(=O)N1CCCC(Nc2cccc(F)c2)C1 (centres undefined),"inconclusive [inhibitor, full curve]",
Cc1ccc(S(=O)(=O)c2nnn3c2nc(N(C)Cc2ccccc2)c2cc(Cl)ccc23)cc1C,,inactive: 17.3%
COc1cccc(NC(=O)C(C)N2C(=O)c3ccccc3S2(=O)=O)c1 (centres undefined),"inconclusive [inhibitor, full curve, poor fit]",
Cc1cccc(NS(=O)(=O)c2ccc3c(c2)NC(=O)CC(=O)N3)c1,"inconclusive [inhibitor, partial curve, poor fit]",
CN(Cc1nccs1)C(=O)c1ccc(OC2CCN(Cc3ccccn3)CC2)cc1,"inconclusive [inhibitor, full curve]",
COc1ccc(C(=O)OCCN2CCOCC2)cc1,"inconclusive [inhibitor, full curve, poor fit]",
CCN(CC)CCC(O)(c1ccccc1)C1CCCCC1 (centres undefined),"inconclusive [inhibitor, partial curve, poor fit]",
CC(C)OCCCNC(=O)C1CCC(CNS(=O)(=O)c2cccc3nsnc23)CC1 (centres undefined),"inconclusive [inhibitor, partial curve, poor fit]",
